{
  "source": "patent US20100068302A1",
  "about": "“METHODS AND COMPOSITIONS FOR THE TREATMENT OF CANCER” (TRASLATIONAL CANCER DRUGS PHARMA, S.L., priority 2008, published 2010)",
  "key": {"H460 MN58R cells": {"test_system": "H460 MN58R cells", "test": "Cell proliferation assay (MTT), H460 line resistant to MN58b", "type": "cell-based, human", "procedure": "(§1) Cell lines resistant to MN58b and RSM-932A (identified as MN58R and RSM-932A-R, respectively) were generated by prolonged continuous exposure to increasing concentrations of each drug. A parallel control (H460 stock) of the cell line in the absence of the compounds was kept in culture for the same time.\n(§2) Cells were seeded on 96-well plates (B D, Falcon, Bioscience, San Jose, Calif., USA) at a density of 6000 cells/well, and incubated for 24 h under standard conditions. Then, cells were treated with different concentrations of the ChoK inhibitors (quadruplicates of each concentration) and maintained for 72 hours. […] Absorbance is read at 595 nm in a VersaMax Microplate Reader (Molecular Devices, Sunnyvale, Calif., USA). For sensitization with acid ceramidase inhibitor, cells were pre-treated 4 hours with the correspondent IC50 for NOE before treatment with ChoK inhibitors. NOE (N-Oleoyl ethanolamine) was obtained from Calbiochem (La Jolla, Calif., USA).\n(§3) To further study the mechanism underlying resistance to ChoK inhibition, as well as the implication of acid ceramidase in this effect, we used the human NSCLC-derived H460 cell line for a set of in vitro experiments. […]"}, "H460stock cells": {"test_system": "H460stock cells", "test": "Cell proliferation assay (MTT), H460stock control line", "type": "cell-based, human", "procedure": "as §1, §2, §3"}, "[1]": {"test_system": "DLD-1 colon cancer derived cells", "test": "MTT cytotoxicity, ChoKI and TRAIL, DLD-1", "description": "(§4) To that end, five colon cancer derived cell lines were used: DLD-1, HT-29, HCT-116, SW620 and SW480."}, "[2]": {"test_system": "DLD-1, HT-29, HCT-116, SW620 and SW480", "test": "MTT sensitivity in five colon cancer derived cell lines", "type": "cell-based", "settings": "five colon cancer derived cell lines (FIG. 7)", "description": "as §4"}, "H460 RSM-932AR cells": {"test_system": "H460 RSM-932AR cells", "test": "Cell proliferation assay (MTT), H460 line resistant to RSM-932A", "type": "cell-based, human", "procedure": "as §1, §2, §3"}, "[3]": {"test_system": "HT-29 colon cancer derived cells", "test": "MTT cytotoxicity, ChoKI and TRAIL, HT-29", "description": "as §4"}, "[4]": {"test_system": "H460 non-small lung cancer cells", "test": "Cell proliferation assay (MTT), H460", "type": "cell-based, human"}, "[5]": {"test_system": "PARP degradation or caspase 3 activation", "test": "Western blot of PARP and caspase-3", "type": "cell-based", "settings": "TRAIL and choline kinase inhibitor combined, Western blot (FIG. 8D)", "procedure": "Western blot analysis of equal amounts of cell lysates (30 μg) was performed using each correspondent antibody. Proteins were resolved by electrophoresis onto 10% SDS-PAGE gels and transferred to nitro-cellulose. Blots were blocked for 2 h in 5% non-fat dried milk in T-TBS. Determination of ASAH1 was carried out using a monoclonal antibody (1:250) obtained from BD Transduction Laboratories (Ref. 6123012). As loading control, blots were assayed against α-tubulin (Sigma T9026). Determination of caspase-3 and PARP was carried out using anti-caspase-3 and anti-PARP antibodies (Santa Cruz Biotechnology, Santa Cruz, Calif.)."}, "[6]": {"test_system": "SW620 colon cancer derived cells", "test": "MTT cytotoxicity, ChoKI and TRAIL, SW620", "description": "as §4"}, "H460 cells": {"test_system": "H460 cells", "test": "Combination index assay (Chou Talalay) cisplatin plus ChoK inhibitors", "type": "cell-based, human", "settings": "cisplatin 3 h followed by 40 h of ChoK inhibitor, CI<1 synergistic, CIs<0.5 strong synergistic", "procedure": "All experiments were performed in quadruplicate."}},
  "note": "Like-named read-outs stand apart in the source and are kept apart here.",
  "data": [
    {"compound": "CN(c1ccc(Cl)cc1)c1cc[n+](Cc2ccc(-c3ccc(C[n+]4ccc(N(C)c5ccc(Cl)cc5)c5ccccc54)cc3)cc2)c2ccccc12.[Br-].[Br-]", "note": "[RSM-932A, 1,1′-(biphenyl-4,4′-diylmethylene)bis [4-(4-chloro-N-methylanilino-)quinolinium]dibromide]", "values": [
      {"measurement": "IC50", "setting": "H460 MN58R cells", "value": 9.5, "unit": "µM"},
      {"measurement": "figure in parentheses after IC50 (undefined; apparently fold resistance vs H460stock)", "setting": "H460 MN58R cells", "value": 7},
      {"measurement": "IC50", "setting": "H460stock cells", "value": 1.32, "unit": "µM"},
      {"measurement": "cytotoxicity, percentage of cell death", "setting": "[1]; DLD-1, ChoKI 2 hours pre-treatment then TRAIL 24 h (both drugs combined)", "value": 75, "unit": "%"},
      {"measurement": "cytotoxicity, percentage of cell death", "setting": "[1]; DLD-1, drug alone", "value": 53, "unit": "%"},
      {"measurement": "sensitivity across the cell lines", "setting": "[2]", "value": "very similar in all cell lines analysed"},
      {"measurement": "IC50", "setting": "H460 RSM-932AR cells", "value": 10.8, "unit": "µM"},
      {"measurement": "figure in parentheses after IC50 (undefined; apparently fold resistance vs H460stock)", "setting": "H460 RSM-932AR cells", "value": 8},
      {"measurement": "cytotoxicity", "setting": "[3]; HT-29, ChoKI in combination with TRAIL", "value": 81, "unit": "%"},
      {"measurement": "cytotoxicity", "setting": "[3]; HT-29, drug alone", "value": 48, "unit": "%"},
      {"measurement": "IC50", "setting": "[4]; H460 (Table 8), read-out: IC50", "value": 1.11, "unit": "µM"},
      {"measurement": "IC50", "setting": "[4]; H460, single agent (Table 7), read-out: IC50 72 h", "value": 1.11, "unit": "µM"},
      {"measurement": "PARP degradation or caspase 3 activation", "setting": "[5]", "value": "increase"},
      {"measurement": "cytotoxicity", "setting": "[6]; SW620, ChoKI in combination with TRAIL", "value": 41, "unit": "%"},
      {"measurement": "cytotoxicity", "setting": "[6]; SW620, drug alone", "value": 9, "unit": "%"},
      {"measurement": "Combination index (CI) with cisplatin", "setting": "H460 cells", "value": 0.4}
    ]}
  ]
}
